Laboratory results as given in PubChem BioAssay AID588855 (National Center for Advancing Translational Sciences (NCATS), 2011).
About 5,000 (1.2%) of roughly 410,000 compounds were called active. The inconclusive results got no clear call from the source; some entries with a clear call stand among them for comparison. The call rests on the fitted dose curve; in most records, active means well fitted inhibition curve with a large enough effect; inconclusive means small, poorly fitted or top-dose-only effect; inactive means no such curve, though single readings can be large or run the other way. Potencies of inconclusive entries are doubtful fits and often do not repeat.
On the % scale 0 is the no-effect control and ±100 the full control effect; potency means the concentration at half of the fitted maximal effect; tags describe the fitted curve by direction and shape.

Assay: qHTS for Inhibitors of TGF-b; further: nearly all actives have a fitted effect of over 65% in size
Conditions: HepG2 CAGA-GFP TGF-b/SMAD3 reporter, GFP fluorescence, 18 h, TGF-beta stimulated, 500 pg/mL final; series mostly up to 46.1 µM; activity, negative = inhibition: at the top concentration
How it was run: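 HEPG2 CAGA-GFP cells (1000/well, DMEM with 1% FBS) were pre-incubated 2 h at 37 degrees C, given compound by pin tool, then stimulated with TGF-beta at 500 pg/mL final for 18 h before per-cell GFP fluorescence imaging.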
In the case of O=C(Nc1ccncc1)c1cc2ccccc2cc1O, the Potency is reported as active: 12.6 µM. In the case of O=C(NCCc1c[nH]c2ccccc12)c1ccc2nc[nH]c2c1, the “activity, negative = inhibition” value is reported as inactive: -5.96%. For COc1ccc(CN(C(=O)c2snc(C(N)=O)c2N)C(CC(C)C)C(=O)NC2CCCCC2)cc1 (stereo not drawn), the Potency was inconclusive: 22.4 µM [inhibitor, single point]. In the case of CN(CC(=O)Nc1ccc(Cl)cc1)CC(=O)Nc1cccc2ccccc12, the Potency is reported as inconclusive: 31.6 µM [inhibitor, single point]. In the case of COc1cccc(NC(=O)COC(=O)c2c3c(nc4ccccc24)CCC(C)C3)c1 (stereo not drawn), the Potency is reported as inconclusive: 35.5 µM [inhibitor, single point]. In the case of O=C(Nc1nc(-c2cc(Cl)sc2Cl)cs1)c1ccccc1, the Potency is reported as inconclusive: 35.5 µM [inhibitor, single point]. For C/C(=N\OCc1cccc(C(=O)O)c1)c1ccc(Cl)cc1, the “activity, negative = inhibition” value was inactive: 5.14%. In the case of C=CCn1c(SCC(=O)Nc2ccc(N(C)C)cc2)nnc1-c1cccc(C)c1, the Potency is reported as inconclusive: 3.98 µM [inhibitor, full curve]. With COc1ccc(-c2cccc(-c3cc(=O)oc4cc(OC)cc(OC)c34)c2)cc1 the Potency was active: 1.41 µM. For Cc1cccc(N(CC(=O)N/N=C/c2cc([N+](=O)[O-])ccc2Cl)S(C)(=O)=O)c1C, the Potency was inconclusive: 35.5 µM [inhibitor, single point]. For Cc1ccc(-c2cc(C(F)F)n3ncc(C(=O)NN4CCCCC4)c3n2)cc1, the “activity, negative = inhibition” value was inactive: -26.5%. With CCn1nc(C)c(NC(=O)c2cnn3c(C(F)F)cc(-c4ccccc4)nc23)c1C the “activity, negative = inhibition” value was inactive: 9.06%. In the case of COc1ccc(C(=O)Nc2cc(Cl)ccc2-n2cncn2)c(OC)c1OC, the Potency is reported as inconclusive: 12.6 µM [inhibitor, single point]. In the case of Cc1cccc(Nc2nc(-c3ccccc3)c(C(=O)Nc3cccnc3)s2)c1, the Potency is reported as inconclusive: 22.4 µM [inhibitor, single point]. For Cc1ccccc1Oc1cc(NC(=O)Cn2cnc([N+](=O)[O-])c2)cc([N+](=O)[O-])c1, the Potency was inconclusive: 35.5 µM [inhibitor, single point]. In the case of CCOc1ccc(CN2CCNC(=O)C2CC(=O)NCCCC2CCCC2)cc1 (stereo not drawn), the Potency is reported as inconclusive: 22.4 µM [inhibitor, single point]. For O=C(Cn1ncc(Cl)c(Cl)c1=O)NC1CCCCC1, the “activity, negative = inhibition” value was inactive: -26.8%. In the case of CC(=O)N1CCN(C(=O)c2cc(-c3ccc(Cl)s3)nc3ccccc23)CC1, the Potency is reported as inconclusive: 35.5 µM [inhibitor, partial curve, poor fit]. For C#CCOCCOCCOCCNc1nc(N2CCOCC2)nc(N2CCN(C(=O)CCCCCCCCCCNC(=O)Cn3cc(CCCCCN)nn3)CC2)n1, the “activity, negative = inhibition” value was inactive: -3.63%. In the case of CC(C)c1ccc(NC(=O)CSc2ncc3c(n2)-c2ccccc2N(C)S3(=O)=O)cc1, the Potency is reported as inconclusive: 3.55 µM [inhibitor, partial curve, poor fit]. In the case of CCCCOC(=O)c1ccc(NS(=O)(=O)c2c(C)nc3scc(C)n3c2=O)cc1, the Potency is reported as active: 11.2 µM. In the case of CN(C(=O)c1ccccc1)C1c2c(ccc3ccccc23)OCC1CO (stereo not drawn), the Potency is reported as inconclusive: 35.5 µM [inhibitor, single point]. With CCOC(=O)N1CCN(C(=O)C2CCCN(c3ncnc4c3nc3n4CCCCC3)C2)CC1 (stereo not drawn) the “activity, negative = inhibition” value was inactive: 35%. With Cc1ccnc(Nc2nc(-c3ccccc3)cs2)c1 the Potency was active: 10 µM. With O=C(Nc1ccc2c(c1)OCCO2)C(c1ccnc2ccccc12)N1CCC(Cc2ccccc2)CC1 (stereo not drawn) the Potency was inconclusive: 7.08 µM [inhibitor, partial curve]. With COc1ccc(OCCn2c(C3CC(=O)N(c4ccc(F)cc4)C3)nc3ccccc32)cc1 (stereo not drawn) the Potency was inconclusive: 3.98 µM [inhibitor, full curve]. In the case of COc1ccc(NC(=O)c2cccc(Oc3ccc([N+](=O)[O-])cc3Cl)c2)cc1, the Potency is reported as inconclusive: 3.16 µM [inhibitor, partial curve]. For Cc1cc(C(=O)OC(C(=O)Nc2ccc(C)c(Cl)c2)c2ccccc2)c(C)o1 (stereo not drawn), the Potency was inconclusive: 31.6 µM [inhibitor, single point]. In the case of C=CCn1c(SCC(=O)c2cc(C)n(Cc3cccs3)c2C)nnc1-c1ccncc1, the Potency is reported as inconclusive: 1.12 µM [inhibitor, partial curve, poor fit]. In the case of Cc1ccc2c(=O)cc(C(=O)Nc3sc4c(c3C(=O)NCc3ccco3)CCC4)oc2c1C, the “activity, negative = inhibition” value is reported as inactive: -11.2%. In the case of Nc1ccc(NC(=O)c2cccs2)cc1, the “activity, negative = inhibition” value is reported as inactive: -22.5%. With O=C(c1cccs1)N1C[C@H](O)[C@@H](n2cc(C3CC3)nn2)C[C@@H]1c1ccccc1 the “activity, negative = inhibition” value was inactive: -3.8%. With Cc1cn(CC(=O)c2ccccc2)c2ccccc12 the Potency was inconclusive: 11.2 µM [inhibitor, partial curve]. In the case of CCOC(=O)/C(=N/Nc1ccccc1OC)N1CCCc2ccccc21, the Potency is reported as inconclusive: 35.5 µM [inhibitor, single point]. With O=C(Cn1cc(S(=O)(=O)Cc2ccc(F)cc2)c2ccccc21)NCCc1ccccc1 the “activity, negative = inhibition” value was inactive: 0%. In the case of Clc1ccc(-c2cnc3n2CCC3)cc1, the “activity, negative = inhibition” value is reported as inactive: -12.5%. In the case of Cc1ccc(S(=O)(=O)c2c(N)n(NC(=O)c3ccco3)c3nc4ccccc4nc23)cc1, the Potency is reported as inconclusive: 3.16 µM [inhibitor, single point]. With COc1cccc(N2CCN(C(=O)c3nn(C)c4c3CSc3ccc(C)cc3-4)CC2)c1 the Potency was inconclusive: 8.91 µM [inhibitor, partial curve, poor fit]. With O=c1c2ccccc2nc(/C=C/c2cccnc2)n1CCc1ccccc1 the “activity, negative = inhibition” value was inactive: -6.1%. With Cc1nn(-c2ccccc2)c(C)c1/C=N/n1cnnc1 the “activity, negative = inhibition” value was inactive: -15.6%. In the case of Cc1ccc(SCCNC(=S)Nc2ccc(C)cc2C)cc1, the “activity, negative = inhibition” value is reported as inactive: -16.8%. In the case of CCOc1ccc(N(CC)C(=O)c2cc3c(s2)-c2ccccc2OC3)cc1, the Potency is reported as inconclusive: 22.4 µM [inhibitor, single point]. In the case of O=C(NCCc1cccs1)C1CC(c2ccccc2F)=NO1 (stereo not drawn), the Potency is reported as inconclusive: 1.12 µM [inhibitor, full curve]. In the case of C=CC[C@@H](CC(=O)N[C@@H](CO)Cc1ccccc1)C(=O)N[C@H](COC(=O)[C@@H](CC=C)Cc1ccc(F)cc1)C(C)(C)C, the Potency is reported as inconclusive: 28.2 µM [inhibitor, partial curve, poor fit]. With c1ccc(N2CCN(Cc3cn4cccnc4n3)CC2)cc1 the “activity, negative = inhibition” value was inactive: -11.6%. For O=S(=O)(c1ccc(F)cc1)N1CCC(c2nc3ccccc3[nH]2)CC1, the Potency was inconclusive: 5.62 µM [inhibitor, single point]. For COC(=O)c1ccccc1NC(=S)NC(=O)CC(C)C, the Potency was inconclusive: 6.31 µM [inhibitor, single point]. In the case of Oc1ccc(-c2nccc(-c3ccc(Cl)cc3Cl)n2)cc1, the Potency is reported as inconclusive: 12.6 µM [inhibitor, partial curve, poor fit]. In the case of Cc1ccc(-c2csc(C(C)(O)c3cccc(F)c3)n2)cc1C (stereo not drawn), the Potency is reported as inconclusive: 35.5 µM [inhibitor, single point]. With COc1ccc(CCNC(=O)C(C)n2c(=O)cc(-c3ccccc3)c3c(C)nn(C)c32)cc1OC (stereo not drawn) the Potency was inconclusive: 11.2 µM [inhibitor, partial curve, poor fit]. In the case of CCC(=O)N1CCN(CCN=CC2=C(O)CC(c3ccc(OC)cc3)CC2=O)CC1 (stereo not drawn), the Potency is reported as inconclusive: 5.62 µM [inhibitor, single point]. In the case of O=S(=O)(NCc1ccc(F)cc1)c1cc(Br)ccc1Br, the Potency is reported as inconclusive: 5.62 µM [inhibitor, full curve]. For N=C1C(c2nc3ccccc3s2)=C(O)CN1NC(=O)c1ccc([N+](=O)[O-])cc1, the Potency was active: 7.08 µM. For N=c1c2c(n(Cc3ccc(Cl)c(Cl)c3)c3c1CCC3)CCCC2, the Potency was inconclusive: 35.5 µM [inhibitor, single point]. In the case of Cc1ccc(NC2=CC(=O)OC(C)C2)cc1 (stereo not drawn), the Potency is reported as inconclusive: 8.91 µM [inhibitor, partial curve]. In the case of CC1=C(C(=O)Nc2cc(Cl)ccc2C)C(c2cccs2)n2ncnc2N1 (stereo not drawn), the “activity, negative = inhibition” value is reported as inactive: 7.83%. In the case of CC12CC3CC(C)(C1)CC(C(=O)NCc1ccco1)(C3)C2, the Potency is reported as inconclusive: 0.631 µM [inhibitor, full curve, poor fit]. For Cc1cc(N2CCCCC2)nc2ccc(NC(=O)CCC(=O)N3CCN(c4ccccc4)CC3)cc12, the Potency was inconclusive: 35.5 µM [inhibitor, partial curve, poor fit]. In the case of Cc1sc(NC(=O)CN(Cc2ccc(F)cc2)C(=O)C(C)C)c(C(N)=O)c1C, the Potency is reported as inconclusive: 6.31 µM [inhibitor, partial curve]. With COc1ccc(CC(=O)N2CCc3cc(OC)c(OC)cc3C2C)c(OC)c1 (stereo not drawn) the “activity, negative = inhibition” value was inactive: 7.16%. In the case of Cc1ccc(S(=O)(=O)N2[C@@H](c3ccc(Cl)cc3)C(C(=O)O)=CC[C@H]2c2ccc(Cl)c(Cl)c2)cc1, the Potency is reported as inconclusive: 20 µM [inhibitor, single point]. In the case of Cc1ccc(F)cc1C(=O)N1CCCC(c2cc(C(=O)NCc3ccc(F)cc3)no2)C1 (stereo not drawn), the “activity, negative = inhibition” value is reported as inactive: -25.8%. In the case of CN(C)CC#Cc1cccc(-c2nc(C(=O)O)cc3c2[C@@H](CCO)N(S(=O)C(C)(C)C)C3)c1 (stereo partly drawn), the Potency is reported as inconclusive: 22.4 µM [inhibitor, single point]. With CCN(C(=O)c1cn(CC)c(=O)c2cc(OC)c(OC)cc12)c1ccccc1F the “activity, negative = inhibition” value was inactive: -8%. For C/C(=N\NC(=S)NCc1ccccc1)c1ccc(Cl)cc1, the Potency was inconclusive: 35.5 µM [inhibitor, single point]. With CCOC(=O)C1=C(O)/C(=C/c2cn(CC(=O)NCC3CCCO3)c3ccccc23)SC1=Nc1ccc(C)cc1 (stereo not drawn) the “activity, negative = inhibition” value was inactive: 36.8%. For COc1ccccc1-c1sc2cc3c(cc2c1C#CC1(O)CCCCC1)OCO3, the Potency was inconclusive: 12.6 µM [inhibitor, partial curve, poor fit]. In the case of CC(C)c1ccc(C(=O)C[N+]2(C)CCOCC2)cc1, the “activity, negative = inhibition” value is reported as inactive: 9.81%.
